# Out of some 52,000 compounds screened, about 1,700 (3.3%) were called active. No stated cut-off is given here; in the data, active means survival mostly below about 52% (no sharp cut-off); inactive means mostly above about 56%. Some of the results follow.
# Test system: Wild type
# Test: S. aureus survival, RN4220 and DeltatarO strains – OD600, teichoic acid synthesis inhibitors, primary screen (AID 463173)
# Conditions: S. aureus RN4220 wild type/DeltatarO growth, OD600, 18 h, stronger effect = lower value, screened at 18.75 µg/mL (by protocol)
row,Structure (SMILES),survival
1,COc1ccc(N2CC(NC(=O)Cc3cccs3)CC2=O)cc1 (centres undefined),inactive: 22%
2,CSc1ccc(CNC(=O)Cc2csc3ccccc23)cc1,inactive: 89%
3,CC(=O)NCCNc1nc2c(-c3cccc(C)c3)nnn2c2ccc(Cl)cc12,inactive: 89%
4,COc1ccc(C2=NC3(CCCCCC3)N(CC(=O)Nc3ccc(C)c(C)c3)C2=O)cc1,inactive: 83%
5,CCn1c(C)c(C)c2cc(C(=O)NCc3ccc(N(C)C)cc3)ccc21,inactive: 126%
6,COc1ccc(CNC(=O)CN(c2cc(C(F)(F)F)ccc2Cl)S(C)(=O)=O)cc1,inactive: 64%
7,Cc1ccc2ncc(S(=O)(=O)c3ccccc3)c(N3CCCCC3C)c2c1 (centres undefined),active: 0%
8,COc1ccc(Cl)cc1NC(=O)Cn1ncc2c3ccccc3n(Cc3ccccc3)c2c1=O,inactive: 122%
9,Cc1ccc(C(=O)c2oc3ccccc3c2NC(=O)c2cc(-c3ccc(Cl)cc3)on2)cc1,inactive: 86%
10,Cc1ccccc1Nc1sc(C(=O)c2ccc(F)cc2)c(N)c1C(=O)NCCc1ccccc1,inactive: 55%
11,Cc1cc(C)c2[nH]c(=O)c(CN(CCCO)C3(c4nnnn4C4CCCC4)CCCC3)cc2c1,inactive: 112%
12,CCOc1ccc(C(=O)NCc2nnnn2-c2ccc(C)c(C)c2)cc1OCC,inactive: 73%
13,CCc1nn(CC(=O)NCC(C)c2ccccc2)c(=O)c2cc3occc3n12 (centres undefined),inactive: 123%
14,Cc1cc(C)c(NC(=O)CCN2C(=O)c3ccccc3Sc3ncccc32)c(C)c1,inactive: 114%
15,Cc1nc2cc(C(=O)NCCC3=CCCCC3)ccc2n1-c1ccc(Br)cc1,inactive: 75%
16,Cc1ccc(-n2c(=O)c3ccc(C(=O)NCc4ccccc4Cl)cc3n(CC(=O)Nc3cccc(Cl)c3)c2=O)cc1,inactive: 130%
17,CSc1nc(Nc2ccc(C)cc2C)cc(-c2ccccc2)n1,inactive: 50%
18,COC(=O)c1cc2c(cc1NC(=O)c1cnn(-c3ccccc3)c1-n1cccc1)OCO2,inactive: 80%
19,CCCCCNC(=O)c1ccc2c(c1)ncn2-c1cccc(C)c1,active: -3%
20,O=C1COc2ccc(-c3cc(-c4ccc(Cl)cc4)c4c(n3)-c3ccccc3OC4)cc2N1,inactive: 139%
21,Cc1cccc(C(=O)Nc2nnc(S(=O)(=O)N(C)Cc3ccc(Cl)cc3)s2)c1,inactive: 69%
22,CCOC(=O)CNC(=O)CSc1cn(CC(=O)N2CCCCCC2)c2ccccc12,inactive: 99%
23,CN(Cc1ccccc1)C(=O)C1CCN(S(=O)(=O)c2ccc3c(c2)oc(=O)n3C)CC1,inactive: 94%

row,Structure (SMILES),survival
1,COc1cc(CNC(=O)c2sc3ncccc3c2-n2cccc2)cc(OC)c1OC,inactive: 128%
2,COc1cccc(C2CC(=O)Nc3cc(OC)c(OC)c(OC)c32)c1OC(C)C (centres undefined),inactive: 87%
3,Cc1cccc(Cn2c(=O)n(CC3CCC(C(=O)NC(C)C)CC3)c(=O)c3sccc32)c1 (centres undefined),inactive: 77%
4,CSc1ccc(CCNC(=O)C2=C(C)C(=O)OC23CCCCC3)cc1,inactive: 79%
5,COc1ccc(NC(=O)CN2C(=O)C(C)(C)c3ccccc32)cc1Cl,inactive: 51%
6,N#Cc1nc(-c2ccc(COc3ccccc3)o2)oc1NCc1cccnc1,inactive: 66%
7,COc1ccccc1CN1CCC(CNS(=O)(=O)c2cc(-c3onc(C)c3C)ccc2OC)CC1,inactive: 63%
8,Cc1nn(-c2ccccc2)c(OC(=O)c2cccc(Br)c2)c1S(=O)(=O)c1ccccc1,inactive: 76%
9,Cc1ccc(-c2nnc(Nc3ccc(Br)cc3)c3ccccc23)cc1S(=O)(=O)NCC1CCCO1 (centres undefined),inactive: 80%
10,Cc1nc(N2CCCC2)c2c(C(=O)N3CCN(c4ccc(F)cc4)CC3)c(C)oc2n1,inactive: 80%
11,COC(=O)c1ccc(OCC2c3cc(OC)c(OC)cc3CCN2C(=O)c2ccccc2C)cc1 (centres undefined),inactive: 66%
12,O=C(OC1CSc2nc3ccccc3n2C1)c1ccco1 (centres undefined),inactive: 104%
13,CCc1cccc(CC)c1NC(=O)c1c(C)oc2ccc(O)c(CN3CCN(C)CC3)c12,inactive: 86%
14,Cc1cccc(N2CCN(C(=O)Cn3ncc4c3-c3cc(C)ccc3OC4)CC2C)c1 (centres undefined),inactive: 45%
15,CCOC(=O)c1cc2c(ccn2C)n1CC(=O)N1CCCC(C)C1 (centres undefined),inactive: 99%
16,O=C(CSc1nnc(Cc2ccccc2)n1Cc1ccco1)NC1CCCC1,inactive: 102%
17,Cc1cc(C)cc(NC(=O)c2cc(C)nc3c2c(C)nn3-c2ccccc2)c1,active: -6%
18,CCOc1ccc(NC(=O)c2cc3c(C)nn(-c4ccccc4)c3s2)cc1,inactive: 78%
19,Cc1ccc(OCC(=O)N(Cc2ccc(Cl)cc2)Cc2ccco2)cc1C,inactive: 85%
20,CCOc1ccc(C2CC(=O)NC(NC(=O)c3ccc(C)cc3)=N2)cc1 (centres undefined),inactive: 71%
21,COc1ccc(NC(=O)Cn2c(=O)n(CCC(C)C)c(=O)c3cccnc32)cc1Cl,inactive: 89%
22,COc1cccc(-c2nc(SCC(=O)NCC3CCCO3)c(-c3ccc(C)cc3)[nH]2)c1 (centres undefined),inactive: 85%
23,COc1ccc(NC(=O)c2ccc3c(=O)n4nc(Nc5ccccc5C)sc4nc3c2)cc1Cl,inactive: 73%

row,Structure (SMILES),survival
1,Cc1ccccc1Nc1cc(C(=O)NC2CCCC2)c2ccccc2n1,inactive: 94%
2,CC(C)NC(=O)C1CCC(Cn2c(=O)c3sccc3n(CC(=O)N3CCCC3)c2=O)CC1 (centres undefined),inactive: 60%
3,CCN(C(=O)c1cc2c(=O)oc3ccccc3c2s1)c1ccc(C)c(C)c1,inactive: 19%
4,Cc1ccc(Cn2c(C(=O)O)c(CNC3CCCCC3)c3ccc(C)cc32)cc1,inactive: 87%
5,CCCOc1ccc(NC(=O)CC2C(=O)N(c3ccccc3)C(=O)N2Cc2ccc(F)cc2)cc1 (centres undefined),active: -1%
6,Cc1cccc(Cn2cc(/C=C(/C#N)C(=O)Nc3cccc(Cl)c3)c3ccccc32)c1,inactive: 77%
7,CCOc1ccccc1NC(=O)Cn1c(=O)n(Cc2nc(C)no2)c(=O)c2ccccc21,inactive: 68%
8,CC(C)=CCc1c(O)cc(O)c2c1OC(c1ccccc1)CC2=O (centres undefined),active: 1%
9,CCC(=O)C1C(=O)CC(C)(C)CC1=O,inactive: 120%
10,Cc1ccc(C(=O)NCC(c2ccc3c(c2)OCO3)N2CCN(c3ccc(F)cc3)CC2)cc1 (centres undefined),inactive: 68%
11,Cc1ccccc1C(=O)Nc1ccccc1OCc1cc(=O)n2ccccc2n1,inactive: 59%
12,O=C(COC(=O)c1cccs1)NCc1cccs1,inactive: 103%
13,CCOc1ccc(CCNC(=O)c2c(C)oc3ncn(CC(C)C)c(=O)c23)cc1,inactive: 75%
14,Cc1cccc(-c2nc(S(=O)(=O)c3ccc(Cl)cc3)c(N3CCCCCC3)o2)c1,inactive: 41%
15,Cc1cccc(CS(=O)(=O)Cc2ccc(C(=O)NCc3ccccc3)o2)c1,inactive: 136%
16,CCN(CC)c1nc2c(S(=O)(=O)c3ccccc3)nnn2c2ccc(Cl)cc12,active: 9%
17,CCOc1ccccc1CNC(=O)c1nc(-c2ccc(Cl)cc2)n2c1CCCCC2,inactive: 73%
18,CCc1ccc(NC(=O)Cn2nnnc2N)cc1,inactive: 115%
19,Nc1nnc(CSCc2ccccc2)s1,inactive: 110%
20,CC1CCN(C(=O)Cn2c(SCC(=O)NC(C)(C)C)nc3ccccc32)CC1,inactive: 102%
21,CSc1nc2ccc(S(=O)(=O)N3CCCCC3)cc2s1,inactive: 105%
22,Clc1ccccc1CNc1ncnc2c1nc1n2CCCC1,inactive: 99%
23,COC(=O)c1c(NC(=O)COc2ccc(C)cc2Br)sc2c1CCCC2,inactive: 44%

row,Structure (SMILES),survival
1,Cc1cccc(NC(=O)C2CCCN(S(=O)(=O)c3ccc4c(c3)oc(=O)n4C)C2)c1C (centres undefined),inactive: 89%
2,Cc1ccc2oc(-c3cc(N=C/C=C/c4ccc5c(c4)OCO5)ccc3O)nc2c1,inactive: 113%
3,CCOc1ccc(N(C)S(=O)(=O)c2cc(-c3cc(C)no3)ccc2OC)cc1,inactive: 72%
4,Cc1ccc(CNC(=O)CN(C)S(=O)(=O)c2ccc3c(c2)c(=O)n(C)c(=O)n3C)cc1,inactive: 84%
5,COc1cccc(N2C(=O)C(CC(=O)Nc3ccccc3)N(CCc3sccc3C)C2=O)c1 (centres undefined),inactive: 79%
6,CCc1ccccc1NC(=O)CN1C(=O)C2CCCN2c2ccc(S(=O)(=O)N(CC)CC)cc21 (centres undefined),inactive: 81%
7,CCOC(=O)C(CC)Sc1ncnc2c1c(-c1ccccc1)cn2-c1ccc(OC)cc1 (centres undefined),inactive: 70%
8,Cc1c(CNC2CCC(C)CC2)c(C(=O)O)c(C)n1Cc1ccc(Cl)cc1 (centres undefined),inactive: 117%
9,O=C(CSc1nnc(-c2ccccc2)c(-c2ccccc2)n1)NCCc1ccccc1,inactive: 68%
10,CCS(=O)(=O)N1CC(=O)N(c2ccc(Cl)cc2C)C(C)(C(=O)NC2CCCCC2)C1 (centres undefined),inactive: 91%
11,O=C(NCCc1ccc(F)cc1)C(=O)NCC(c1cccs1)S(=O)(=O)c1ccc(Cl)cc1 (centres undefined),inactive: 64%
12,Cc1cc(C)c(OCC(=O)N(Cc2ccc(N(C)C)cc2)CC2CCCO2)c(C)c1 (centres undefined),inactive: 81%
13,Cc1cc(=O)n(CC(=O)N2CCCc3ccccc32)c2c1c(C)nn2-c1cccc(F)c1,inactive: 58%
14,Cc1ccc(C)c(N(C)C(=O)c2cc3c(s2)-c2ccccc2OC3)c1,active: -2%
15,COc1ccc(C(=O)Nc2ccccc2C(=O)Nc2ccccn2)cc1,inactive: 113%
16,CCn1c(=O)c2cc(C(=O)NCc3ccc(F)cc3Cl)sc2c2ccccc21,inactive: 81%
17,CCCCOC(=O)c1ccc(OC(=O)c2sc3ncn(Cc4cccc(F)c4)c(=O)c3c2C)cc1,inactive: 59%
18,CCOC(=O)c1[nH]c(C)c(CCC(=O)Nc2ccccc2OCC)c1C,inactive: 84%
19,CCC(C)NC(=O)Cn1c(=O)n(CCCCCC(=O)Nc2ccccc2)c(=O)c2sccc21 (centres undefined),inactive: 92%
20,CCCN(C(=O)Cc1nc(-c2ccc(OC)cc2)no1)c1ccccc1C,inactive: 87%

# — PubChem BioAssay AID463173 (ICCB-Longwood Screening Facility, Harvard Medical School, 2010)
